In the supplement of paper PMC7826260:
This is one part of the list. Cleavage of a single-stranded DNA pool by Rep nickase domains was read by sequencing (3 µM enzyme, 1 h, 37 °C); shown is the middle of each 90-letter strand. Uncut reads are compared with the no-enzyme pool on a log2 scale; strong cutting gives strongly negative numbers. There is no active / inactive call. Because reads are shares of a total, they shift together; values above 0 arise when much of the pool is cut.

Tested on: T1, Rep nickase domain of tomato golden mosaic virus
T1 sequence (residues 1-124 of Rep, tag left off): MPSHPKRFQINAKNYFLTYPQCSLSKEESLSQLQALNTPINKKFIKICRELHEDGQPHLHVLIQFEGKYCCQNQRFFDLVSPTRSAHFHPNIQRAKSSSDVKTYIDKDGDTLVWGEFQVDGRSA
Assay: uncleaved DNA left, log2 of reads against the no-enzyme library (log2 ratio); higher = less cleavage (more negative = more Rep cleavage of the k-mer); sequences stand for … in CTCGTCCG…ACCGGAGA
Protocol: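 A pool of 90-nt single-stranded DNAs with seven random bases just before the constant AC of the nick site (name = the seven bases) was cut by 3 µM recombinant His6-SUMO-tagged Rep nickase domain (300 nM DNA, 50 mM HEPES pH 8.0, 50 mM NaCl, 1 mM MnCl2, 1 h, 37 °C, three replicates). Uncut DNA was amplified and sequenced.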

Row | Sequence | uncleaved DNA left (log2)
1 | GATCGGC | -0.11
2 | TCAAGGT | 0.0482
3 | TTTCCCG | -0.0353
4 | GGTAAGG | 0.152
5 | TATCGGG | -0.0344
6 | TCCGAAC | -0.0757
7 | TAAATTG | -0.0354
8 | TAGTATC | -0.153
9 | CTTCCCT | -0.287
10 | TCGGTGG | 0.0527
11 | TCCGCGC | -0.159
12 | ATAGATA | 0.0837
13 | GATGATA | 0.173
14 | ATGATGT | -0.0951
15 | GGTACTC | -0.0347
16 | ATTGACA | 0.0379
17 | AGAAGCC | 0.105
18 | TCGAATG | -0.0901
19 | CGCATCA | 0.0476
20 | GTGCACG | 0.0448

Row | Sequence | uncleaved DNA left (log2)
21 | ATGTCAG | 0.000657
22 | GTGGGCG | 0.0471
23 | CTAGAGA | -0.00876
24 | CAGGGGT | -0.0532
25 | GTTTTGT | 0.0884
26 | TCGAACA | 0.105
27 | TTTCAAG | -0.124
28 | GTCGCTA | 0.00346
29 | CACCTAG | -0.0723
30 | AATTACC | -0.0407
31 | TGTTATC | -0.0202
32 | CCCCCGG | 0.0722
33 | CATTTAC | -0.0658
34 | ATTGAGC | 0.0425
35 | GCCATTC | -0.0035
36 | AAATCCC | -0.649
37 | ATCAAAC | 0.0478
38 | ATCTGGC | 0.0506
39 | GTGGTGT | -0.0189
40 | ACAGAGT | 0.0557
